# Assay results taken from paper PMC6919601, “Identification of Plasmodium dipeptidyl aminopeptidase allosteric inhibitors by high throughput screening” (PLoS ONE, 2019).
# Among all 110,000 compounds or so, about 230 (0.21%) showed an effect of 50% or more. This is one part of the list.
# Biological target: DPAP1 (Plasmodium falciparum, UniProt Q8IIJ9)
# Assay: primary screen, percent inhibition; read by cleavage of a fluorogenic dipeptide substrate; higher = more effect of the substance
# Parameters: species or system P. falciparum D10 trophozoite lysates; single well
# 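Note: 30 min substrate incubation versus DMSO and 10 µM JCP410 controls.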
# Sequence of DPAP1 (Q8IIJ9 whole entry, looked up): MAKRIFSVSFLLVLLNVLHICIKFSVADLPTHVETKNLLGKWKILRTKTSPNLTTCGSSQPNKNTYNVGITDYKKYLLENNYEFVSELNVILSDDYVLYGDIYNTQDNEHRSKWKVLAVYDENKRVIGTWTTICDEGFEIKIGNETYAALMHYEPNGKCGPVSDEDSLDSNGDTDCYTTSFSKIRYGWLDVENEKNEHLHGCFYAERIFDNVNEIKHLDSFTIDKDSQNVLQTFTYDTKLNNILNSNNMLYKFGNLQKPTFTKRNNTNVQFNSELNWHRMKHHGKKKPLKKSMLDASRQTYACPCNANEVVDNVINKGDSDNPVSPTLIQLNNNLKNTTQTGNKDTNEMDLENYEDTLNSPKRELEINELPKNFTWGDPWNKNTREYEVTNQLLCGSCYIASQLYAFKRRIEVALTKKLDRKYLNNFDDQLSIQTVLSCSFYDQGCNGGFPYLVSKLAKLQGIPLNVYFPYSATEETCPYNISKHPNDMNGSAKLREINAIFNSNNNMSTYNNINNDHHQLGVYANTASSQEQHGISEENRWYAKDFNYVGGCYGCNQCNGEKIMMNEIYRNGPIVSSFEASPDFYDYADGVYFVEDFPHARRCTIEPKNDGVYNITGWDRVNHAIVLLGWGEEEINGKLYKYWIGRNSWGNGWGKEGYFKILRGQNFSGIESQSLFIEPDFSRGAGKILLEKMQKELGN
row,Compound,% Inhibition @ 10 uM [%]
1,COc1ccc(C2N3CC4(C)CN2CC(C)(C3)C4)cc1OC (stereo not drawn),4.84
2,C=CCN1C(=O)/C(=C\c2ccc(F)cc2)C(C(=O)OCC)=C1C,-0.267
3,CC12CN(Cc3ccccc3)CC(C)(CN(Cc3ccccc3)C1)C2=O,3.32
4,Cc1oc(-c2ccc(C(=O)NC3CCCc4ccccc43)cc2)nc1CS(=O)c1ccccc1 (stereo not drawn),1.14
5,COc1ccc(N(CC(=O)Nc2ccc3c(c2)OCO3)S(=O)(=O)c2ccc(C)cc2)cc1OC,-0.469
6,COc1ccc2c(c1)CCc1c(C(=O)Nc3sc4c(c3C#N)CCCC4)noc1-2,-10.8
7,CCOC(=O)C1=C(CN2CCN(C3CCCCC3)CC2)NC(=O)NC1c1ccccc1 (stereo not drawn),-1.3
8,Cc1nn(CC(=O)NCCN(C)C)c(=O)c2nn(-c3ccccc3)c(C)c12,3.49
9,CCn1c2ccccc2c2nnc(N3CCC(C(N)=O)CC3)nc21,-3.1
10,O=C(Cn1nc(Cc2ccncc2)c2ccccc2c1=O)Nc1cccnc1,21.1
11,Nc1ccc(NC2=C(N3CCCCC3)C(=O)c3ccccc3C2=O)cc1,53.5
12,COc1ccc(C2=NN(CCC(=O)NCCc3ccc(OC)c(OC)c3)C(=O)CC2)cc1,3.24
13,Cc1cccn2c(=O)c3cc(C(=O)NCCc4ccccc4)n(C)c3nc12,4.19
14,CCC(=O)N1N=C2C3CCN(CC3)C2C1c1cccc(OC)c1OC (stereo not drawn),2.57
15,CN(C)CCC(O)(c1ccccc1)c1nc2ccccc2n1C (stereo not drawn),0.0538
16,Cc1ccc(Cn2c(=O)c3cccnc3n(CC(=O)Nc3cc(C)[nH]n3)c2=O)cc1,-3.44
17,O=S(=O)(c1cccc(C(F)(F)F)c1)N1CCC(c2nc3ccccc3s2)CC1,2.29
18,CC1(C)CC(CCN)(c2ccccc2)CCO1 (stereo not drawn),-6.25
19,Cc1ccccc1-c1nc2cc(NC(=O)c3cccc([N+](=O)[O-])c3)ccc2o1,-1.48
20,CC(C)CN(CC(C)C)C(=O)c1ccc2c(c1)OCO2,3.53
21,CCc1ccc(S(=O)(=O)c2cnc3cc(F)c(F)cc3c2O)cc1,-0.0115
22,NC(=O)C1CCCN(Cc2ccccc2Br)C1 (stereo not drawn),-0.603
23,CC(C)(C)c1ccc(C23OC(=O)C(C)(C)C2OC(=O)C3(C)C)cc1 (stereo not drawn),-3.14
24,Cc1ccc(S(=O)(=O)c2cc3c(=O)n4ccccc4nc3n(Cc3ccccc3)c2=N)cc1,-4.61

row,Compound,% Inhibition @ 10 uM [%]
1,Nc1ccc(NC(=O)c2ccccc2Br)cc1,-0.0494
2,C/C=C(\C)CN1CCN(c2ccc(F)cc2)CC1,-1.5
3,O=C(COc1ccccc1C1CC(=O)Nc2ccc3ccccc3c21)Nc1ccccc1 (stereo not drawn),-2.53
4,CCN(CC)CCCNc1cc(C(F)(F)F)c(C#N)c2nc3ccccc3n12,2.56
5,O=C(NC1CCCCCC1)C1c2ccccc2C(=O)N1C1CCCC1 (stereo not drawn),1.16
6,CC(C)NC(=O)COc1ccc(Cl)cc1Cl,5.09
7,CC1=CSC2=NC(=O)/C(=C\c3ccc(SCc4ccc(Cl)cc4)o3)C(=N)N12,-0.22
8,CCCN(CCO)Cc1cc(Br)ccc1OC,-0.0494
9,Cc1ccc(N2C(=O)C(Cl)=C(N(C)c3ccccc3)C2=O)cc1,5.67
10,CC(=O)C12CCCCC1CC1C3CC(C)[C@@]4(O)CC(O)CCC4(C)C3CCC12C (stereo partly drawn),5.66
11,CC(NC(=O)c1cc(-c2ccco2)on1)c1ccccc1 (stereo not drawn),-1.84
12,CCOC(=O)c1c(C)[nH]c(C)c1S(=O)(=O)NCCc1sccc1C,-7.13
13,CC(C)CC(C(=O)NCC#N)c1cccc(-c2cccc(C(=O)N3CCN(CCO)CC3)c2)c1 (stereo not drawn),-1.41
14,O=C(c1cnn2c1NC(c1ccccc1)CC2C(F)(F)F)N1CCOCC1 (stereo not drawn),0.687
15,OC1CCN(Cc2c(F)cccc2Cl)CC1,4.51
16,COc1cc(C2C3=C(CC(C)(C)CC3=O)N(C)C3=C2C(=O)CC(C)(C)C3)cc(Br)c1O,-5.66
17,CC(c1ccccc1)N1C(=O)c2ccc(C(=O)Nc3ccccc3C(=O)O)cc2C1=O (stereo not drawn),3.21
18,CC(=O)Nc1cccc(NC(=O)c2ccccc2Cl)c1,-5.65
19,CC(C)C[C@H](NC(=O)c1ccc(-c2c(Cl)cc(C(=O)O)cc2Cl)cc1)C(=O)NCC#N,-6.56
20,COc1cc(OC)cc(C(=O)Nc2ccccc2)c1,1.17
21,O=C(Nc1cccc(C(F)(F)F)c1)c1cc2ccccc2c(=O)s1,-0.318
22,CCOc1cccc2cc(-c3nc(-c4cccnc4)no3)c(=O)oc12,2.73
23,CC1(C)CC(CCN2CCCC2)(c2ccccc2)CCO1 (stereo not drawn),-0.424
24,CCCOc1ccc(C(=O)N(Cc2cccc(OC)c2)C2CCS(=O)(=O)C2)cc1 (stereo not drawn),-4.95
